The campaign covered roughly 46,000 compounds. About 60 (0.1%) were called active. Inconclusive results (about 3%) are left out. Calls come from the whole dose curve; as a rule, active = well fitted inhibition curve with a large enough effect; inconclusive = small, poorly fitted or top-dose-only effect; inactive = no such curve, though single readings can be large or run the other way. This is one part of the list.
Test: Primary qHTS assay for Inhibitors of ovarian cancer metastasis using an organotypic tumor microenvironment (TME) model.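 For Potency: count of GFP cancer cells still attached after washing and fixation.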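 For activity change, negative = inhibition: plate controls were DMSO wells for no effect and tomatine positive control wells for full effect.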 Note: nearly all actives have a fitted effect of over 65% in size.
Settings: SKOV3ip1-GFP adhesion/invasion on 3D omental model, fluorescence; series mostly up to 45.8 µM; activity change, negative = inhibition: at the top concentration
Outline: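 A 3D layer of primary human omental fibroblasts, mesothelial cells, fibronectin and collagen I, grown 48 hr, received SKOV3ip1-GFP cells in serum-free medium plus compounds at 0.36-46 umol/L. After 2 hr RT and 16 hr 37 C, fixed adherent GFP cells were counted; normalized to DMSO and tomatine.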
Potency is the fitted concentration of half-maximal effect.

Row | Compound | activity change, negative = inhibition | outcome | Potency
1 | CCOc1ccccc1NC(=O)c1cc(=O)c2ccc(C)cc2o1 | inactive: -0.837% |  | 
2 | Cc1ccc(OCC(=O)N(c2ccc(C)cc2)S(=O)(=O)c2ccc(Cl)cc2)cc1 | inactive: 5.56% |  | 
3 | Cc1ccc2c(CN3CCN(C(=O)c4ccc(F)cc4)CC3)cc(=O)oc2c1 |  | inactive | 
4 | CCCCS(=O)(=O)c1oc(-c2cccs2)nc1S(=O)(=O)c1ccccc1 |  |  | active: 2.51 µM
5 | COc1cc2nc(NCCC(C)C)n3nc(-c4ccccc4)nc3c2cc1OC | inactive: -7.76% |  | 
6 | Cc1cc(C)n2c(Nc3ccc(Cl)cc3)c(-c3ccsc3)nc2n1 |  | inactive | 
7 | COc1cccc(C(=O)Nc2ccc3nc(SCC(=O)N4CCOCC4)sc3c2)c1 | inactive: -6.97% |  | 
8 | Cn1c(=O)n(C)c2cc(NS(=O)(=O)c3ccc(F)cc3)ccc21 | inactive: -6.17% |  | 
9 | CC(C)(C)c1ccc(C(=O)NCCc2csc3nc(-c4ccccc4F)nn23)cc1 | inactive: 3.35% |  | 
10 | COc1ccc(C2CC(=O)NC(NC(=O)c3ccc(Br)cc3)=N2)c(OC)c1OC (stereo unspecified) | inactive: -12.3% |  | 
11 | CSCCC(NS(=O)(=O)c1ccc2c(c1)oc(=O)n2C)C(=O)N1CCN(c2cc(C)ccc2C)CC1 (stereo unspecified) | inactive: -15% |  | 
12 | COc1ccccc1CNC(=O)CN1C(=O)COc2ccc(S(=O)(=O)Nc3ccccc3)cc21 | inactive: -20.4% |  | 
13 | O=C(CS(=O)(=O)c1cccc2nsnc12)Nc1ccccc1 |  | inactive | 
14 | CCOc1ccccc1NC(=O)CSc1nc(=O)[nH]c2c1CCCC2 | inactive: 2.01% |  | 
15 | CCc1c2c(nc3ccc(OC(=O)N4CCC(N5CCCCC5)CC4)cc13)-c1cc3c(c(=O)n1C2)COC(=O)[C@]3(O)CC | inactive: -5.46% |  | 
16 | COc1cc(/C=C/c2nc(C#N)c(N3CCCCCC3)o2)cc(OC)c1OC | inactive: 12.5% |  | 
17 | CCCOc1cccc(NC(=O)c2c(-c3ccccc3Cl)noc2C)c1 | inactive: 5.71% |  | 
18 | CN(C(=O)CSc1nc2ccc(NC(=O)COc3ccc(Cl)cc3)cc2s1)c1ccccc1 | inactive: -3.3% |  | 
19 | O=S(=O)(Nc1ccccc1C(F)(F)F)c1ccc(N2CCCCS2(=O)=O)cc1 | inactive: -1.15% |  | 
20 | CN(Cc1ccccc1)C(=O)c1ccc2c(c1)N(Cc1ccccc1F)C(=O)c1ccccc1S2(=O)=O |  | inactive | 
21 | O=C(Nc1cc(-c2nc3ccccc3s2)ccc1Cl)c1cc2ccccc2o1 | inactive: -8.78% |  | 
22 | COc1ccc(OC)c(NC(=O)Cn2cnc3ccc(S(=O)(=O)N4CCC(C)CC4)cc3c2=O)c1 |  | inactive | 
23 | CC(=O)N(Cc1cccnc1)c1nc2c(F)cc(F)cc2s1 | inactive: 9.99% |  | 
24 | Cc1cc(C)c2oc(C(=O)Nc3ccc(S(=O)(=O)N4CCCCC4)cc3)cc(=O)c2c1 | inactive: 1.79% |  | 

Row | Compound | activity change, negative = inhibition | outcome | Potency
25 | Cc1ccc(Cl)cc1-n1c(=O)cc(N2CCN(c3ccc(F)cc3)CC2)[nH]c1=O |  | inactive | 
26 | Cc1ccc(-c2nc3sc(CCNS(=O)(=O)c4cc(F)ccc4F)c(C)n3n2)cc1 | inactive: -8.02% |  | 
27 | COc1ccc(Cl)cc1NS(=O)(=O)c1ccc2[nH]c3c(c2c1)CCCC3 | inactive: 0.821% |  | 
28 | Cc1cccc(C)c1NC(=O)Cn1c(=O)n(Cc2ccccc2)c(=O)c2c(C)c(C(=O)N(C)C)sc21 |  | inactive | 
29 | O=C(O)Cn1nnc(-c2ccc(OCc3cccc(C(F)(F)F)c3)cc2)n1 | inactive: 5.51% |  | 
30 | Cn1c(=O)c2c(-c3ccc(Cl)cc3)n(Cc3ccccc3)cc2n(C)c1=O | inactive: 8.44% |  | 
31 | COc1cccc(/C=C/c2nc(C#N)c(NCCN(C)C)o2)c1 | inactive: 1.03% |  | 
32 | COc1ccc(S(=O)(=O)NCCc2cc3ccc(C)c(C)c3[nH]c2=O)cc1 |  | inactive | 
33 | COc1ccc(Cn2c(CCC(=O)NCc3cccc(Cl)c3)nc3cccnc32)cc1 | inactive: -12.1% |  | 
34 | CCOC(=O)c1[nH]c(C)c(CCC(=O)NCc2ccc(N(C)C)cc2)c1C | inactive: -1.36% |  | 
35 | O=C(CSc1nccn1Cc1ccco1)Nc1ccc(F)cc1 | inactive: -22.5% |  | 
36 | COc1ccc(CNC(=O)CSc2nc3ccccc3nc2Cc2ccccc2)cc1 | inactive: -20.8% |  | 
37 | COc1cccc(NC(=O)C2CCC(CNS(=O)(=O)c3ccc4c(c3)CC(C)N4C(C)=O)CC2)c1 (stereo unspecified) | inactive: -0.395% |  | 
38 | CCOC(=O)c1cc(S(=O)(=O)Nc2ccc(C)cc2Cl)[nH]n1 | inactive: 85.5% |  | 
39 | CCOc1ccc(-c2nn(CC(=O)NC3CCCC3)c3c2cnc2ccc(C)cc23)cc1 | inactive: -8.36% |  | 
40 | COc1ccc(CCNC(=O)c2ccc3c(c2)N(Cc2ccc(Cl)cc2)C(=O)c2ccccc2S3)cc1OC | inactive: -26.2% |  | 
41 | Cc1ccc(NC(=O)CCN2CCN(CCO)CC2)cc1C | inactive: -0.997% |  | 
42 | COc1cc(OC)c(NC(=O)c2cc(C)nc3c2c(C)nn3-c2ccc(C)cc2)cc1Cl | inactive: -14.6% |  | 
43 | CC(C)CCNC(=O)Nc1ccc2c(c1)N(Cc1ccccc1)C(=O)c1ccccc1S2 |  | inactive | 
44 | Cc1ccccc1Nc1c(-c2ccc(Br)o2)nc2ccc(Cl)cn12 | inactive: -9.19% |  | 
45 | CCc1ccc(NC(=O)Cc2c(C(=O)O)c(C)cn2C)cc1 | inactive: 19.1% |  | 
46 | Cc1ccc(S(=O)(=O)CC(=O)Nc2sc3c(c2C(N)=O)CCCC3)cc1 |  | inactive | 
47 | CCc1ccc(Oc2c(C(F)(F)F)oc3c(CN4CCC(C)CC4)c(O)ccc3c2=O)cc1 | inactive: 15.7% |  | 
48 | CCOC(=O)Cc1ccc(NC(=O)N2CCC(CN3CCCCCC3)CC2)cc1 |  | inactive | 

Row | Compound | activity change, negative = inhibition | outcome | Potency
49 | CCOc1ccccc1Nc1nnc(-c2cc3cc(OC)ccc3oc2=O)s1 | inactive: 7.03% |  | 
50 | CCN(CC)c1cc2c(cc1F)c(=O)c(S(=O)(=O)c1ccc(OC)cc1)cn2Cc1ccccc1 | inactive: 6.28% |  | 
51 | CC(=O)c1ccc(NC(=O)Cn2c(-n3nc(C)cc3C)nc(C)c(C)c2=O)cc1 | inactive: 2.63% |  | 
52 | Cc1ccc(NC(=O)CN2CCSc3ccc(S(=O)(=O)N4CCCC4)cc32)cc1 |  | inactive | 
53 | Cc1c(CCNC(=O)c2ccco2)sc2nc(-c3ccc(F)cc3)nn12 | inactive: 2.72% |  | 
54 | CCN(Cc1nc(-c2ccc(OC)cc2)oc1C)S(=O)(=O)c1ccc(C)cc1 | inactive: 2.61% |  | 
55 | COc1ccc(C(=O)N2CCC(C(=O)Nc3ccc(Cl)cc3)CC2)cc1 | inactive: 1.88% |  | 
56 | CCOc1ccc(S(=O)(=O)N(CC(=O)NCc2ccccc2OC)c2ccccc2)cc1 |  | inactive | 
57 | CCCCN(CC)CCCNC(=O)Cn1ncc2c3ccccc3n(C)c2c1=O | inactive: 4.4% |  | 
58 | CCOc1ccc(OCC)c(NC(=O)Cn2nc(CC)n3c(cc4sccc43)c2=O)c1 |  | inactive | 
59 | Cc1cc(=O)n2nc(N(C)CC(=O)NCc3cccc(Br)c3)sc2n1 | inactive: 16.4% |  | 
60 | CCc1cccc(NC(=O)Cn2c(=O)n(CC(=O)NCCc3ccccc3)c(=O)c3ccccc32)c1 | inactive: 0.308% |  | 
61 | O=C1CC(c2ccccc2)c2c(n3ncnc3[nH]c2=O)N1 (stereo unspecified) | inactive: -13.1% |  | 
62 | CC(C)CCn1c(=O)c2sccc2n2c(CCCC(=O)NCCc3ccccc3)nnc12 |  | inactive | 
63 | Cc1nc2ccc(S(=O)(=O)N(CC(=O)Nc3cccc(F)c3)Cc3ccccc3)cc2s1 | inactive: 4.59% |  | 
64 | CC(C)N(C)C1CCN(S(=O)(=O)c2ccc3[nH]c(=O)ccc3c2)CC1 | inactive: -9.92% |  | 
65 | COc1ccc(NC(=O)Cn2c(SCc3ccc(F)cc3)nc3cccnc32)cc1OC | inactive: -8.97% |  | 
66 | O=C(NCCc1ccc(Cl)cc1)c1ccc(CS(=O)Cc2ccccc2Cl)o1 (stereo unspecified) | inactive: 0.896% |  | 
67 | COc1ccccc1C(=O)N1CCC(c2noc(-c3ccc(S(=O)(=O)N4CCCC4)cc3)n2)CC1 |  | inactive | 
68 | COc1cccc(CNC(=O)c2oc3c(c2C)-c2nn(Cc4cccc(Cl)c4)cc2CC3)c1OC |  | inactive | 
69 | OC[C@H]1O[C@@H](OCCc2ccc(O)cc2)[C@H](O)[C@@H](O)[C@H]1O | inactive: -6.64% |  | 
70 | Cc1cc(C)cc(N2C(=O)CSC23C(=O)N(CC(=O)Nc2ccc(F)cc2F)c2ccccc23)c1 (stereo unspecified) |  | inactive | 
71 | O=C(Nc1ccc2nc(SCC(=O)N3CCCC3)sc2c1)c1cccc(Br)c1 |  | inactive | 
72 | Cc1ccc(C)c(CNC(=O)CCn2cccn2)c1 | inactive: -6.53% |  | 

Row | Compound | activity change, negative = inhibition | outcome | Potency
73 | Oc1ccc([C@@H]2Oc3ccc(O)cc3[C@@H]3CCC[C@@H]32)cc1 | inactive: 11.8% |  | 
74 | Cc1cccc(NC(=O)C2CCN(c3nc4ccccc4[nH]3)CC2)c1C | inactive: -1.11% |  | 
75 | CCOC(=O)c1oc2c(c1C)-c1nn(Cc3c(F)cccc3Cl)cc1CC2 | inactive: 6.88% |  | 
76 | CCCCc1nn2c(=O)cc(COC(=O)c3ccc(NC(=O)CCc4ccccc4)cc3)nc2s1 | inactive: 8.65% |  | 
77 | CCN(Cc1ccccc1)C(=O)Cn1c(=O)n(-c2ccc(Cl)cc2)c(=O)c2c(C)c(C(=O)N(C)C)sc21 | inactive: -3.54% |  | 
78 | Cc1c(CCC(=O)NCc2cccc(Cl)c2)c(=O)oc2c(C)c(O)ccc12 | inactive: -25.6% |  | 
79 | Cc1ccc(CCNC(=O)CS(=O)Cc2nc(-c3ccccc3C)oc2C)cc1 (stereo unspecified) | inactive: -30.1% |  | 
80 | CCCc1ccc(-c2ccc(C(=O)Oc3ccc(OCC)cc3)cc2)nc1 | inactive: -1.01% |  | 
81 | CCCCN(C)S(=O)(=O)c1ccc(C(=O)Nc2sc3c(c2C(N)=O)CC(C)(C)NC3(C)C)cc1 | inactive: -2.75% |  | 
82 | CCc1ccc(OCc2nc(-c3ccc(OC)cc3)no2)c(Br)c1 | inactive: 9.97% |  | 
83 | O=C(Cn1ncc2c3ccccc3n(Cc3cccc(Cl)c3)c2c1=O)NCc1cccs1 | inactive: 6.52% |  | 
84 | O=C(CSc1nc2c(oc3ccccc32)c(=O)n1Cc1ccco1)Nc1ccccc1Cl |  | inactive | 
85 | O=C(Cn1cnc2c(oc3ccccc32)c1=O)Nc1ccc(F)cc1F | inactive: -4.02% |  | 
86 | CCOc1ccc(C2C(=O)N(C3CCCCCC3)CC(=O)N2CCc2ccc(OC)c(OC)c2)cc1OC (stereo unspecified) |  | inactive | 
87 | O=S(=O)(c1ccc2nc(NCc3ccccc3Cl)ccc2c1)N1CCCCC1 |  | inactive | 
88 | O=C(Nc1nc2ccccc2s1)c1ccc(S(=O)(=O)N2CCCC2)cc1 | inactive: 1.11% |  | 
89 | COc1cc(Cl)c(NS(=O)(=O)c2ccc(-c3cnc(C4CC4)o3)cc2)c(OC)c1 | inactive: 5.74% |  | 
90 | COc1ccc(CNC(=O)CSc2nc(-c3ccc(OC)c(OC)c3)cc(C(F)(F)F)n2)cc1 | inactive: 90.8% |  | 
91 | CC(CNC(=O)c1ccc(CSc2nc3ccncc3n2Cc2ccccc2)cc1)c1ccccc1 (stereo unspecified) | inactive: -15.2% |  | 
92 | CCS(=O)(=O)c1nc(S(=O)(=O)c2ccc(C)cc2)c(NCCCOC)s1 | inactive: -4.9% |  | 
93 | CCOC(=O)c1ccc(NC(=O)NCCOCCn2c(=O)oc3ccccc32)cc1 |  | inactive | 
94 | CCOC(=O)c1cc(S(=O)(=O)N2CCN(c3ccc(C(C)=O)cc3)CC2)[nH]n1 | inactive: -7.84% |  | 
95 | CCCC12CN3CC(CCC)(CN(C1)C3c1ccccc1)C2=O (stereo unspecified) | inactive: 1.6% |  | 
96 | CC(=O)c1ccc(NC(=O)c2ccc(-c3ccc(Cl)cc3)o2)cc1 | inactive: -7.1% |  | 

From PubChem BioAssay AID1963576 (National Center for Advancing Translational Sciences (NCATS), 2024)
